# Laboratory results reported in PMC9911399, “Two distinct binding modes provide the RNA-binding protein RbFox with extraordinary sequence specificity”.
# Where a chain is given by its changes, count along the chain named. This is one part of the list.
# T1: RBFOX1 RRM (Homo sapiens, UniProt Q9NWB1 109-208)
# T1 sequence: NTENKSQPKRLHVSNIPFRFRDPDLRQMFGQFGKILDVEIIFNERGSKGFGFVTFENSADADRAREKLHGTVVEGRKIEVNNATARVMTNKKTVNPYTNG
# B1: CGCCUAA (DNA:RNA)
# RNA: GGGAGACCGGAAUUCAGAUUGUCCCGCCUAAUUAAAUCCCGUCGUAGCCACCA
# DNA 1: CAATCTGAATTCCGGTCTCCC
# DNA 2: TGGTGGCTACGACGGGATT
# B2: ACGCGGC (DNA:RNA)
# RNA: B1 RNA with C25A, G26C, C27G, U29G, A30G, A31C
# DNA 1: CAATCTGAATTCCGGTCTCCC
# DNA 2: TGGTGGCTACGACGGGATT
# B3: GGUCAGU (DNA:RNA)
# RNA: B1 RNA with C25G, C27U, U29A, A30G, A31U
# DNA 1: CAATCTGAATTCCGGTCTCCC
# DNA 2: TGGTGGCTACGACGGGATT
# B4: CGAAUUC (DNA:RNA)
# RNA: B1 RNA with C27A, C28A, A30U, A31C
# DNA 1: CAATCTGAATTCCGGTCTCCC
# DNA 2: TGGTGGCTACGACGGGATT
# B5: UCUUGUA (DNA:RNA)
# RNA: B1 RNA with C25U, G26C, C27U, C28U, U29G, A30U
# DNA 1: CAATCTGAATTCCGGTCTCCC
# DNA 2: TGGTGGCTACGACGGGATT
# B6: GCGCCGG (DNA:RNA)
# RNA: B1 RNA with C25G, G26C, C27G, U29C, A30G, A31G
# DNA 1: CAATCTGAATTCCGGTCTCCC
# DNA 2: TGGTGGCTACGACGGGATT
# B7: UGUCCGC (DNA:RNA)
# RNA: B1 RNA with C25U, C27U, U29C, A30G, A31C
# DNA 1: CAATCTGAATTCCGGTCTCCC
# DNA 2: TGGTGGCTACGACGGGATT
# B8: CUCACCC (DNA:RNA)
# RNA: B1 RNA with G26U, C28A, U29C, A30C, A31C
# DNA 1: CAATCTGAATTCCGGTCTCCC
# DNA 2: TGGTGGCTACGACGGGATT
# B9: UUAGUUC (DNA:RNA)
# RNA: B1 RNA with C25U, G26U, C27A, C28G, A30U, A31C
# DNA 1: CAATCTGAATTCCGGTCTCCC
# DNA 2: TGGTGGCTACGACGGGATT
# B10: GCGGUUA (DNA:RNA)
# RNA: B1 RNA with C25G, G26C, C27G, C28G, A30U
# DNA 1: CAATCTGAATTCCGGTCTCCC
# DNA 2: TGGTGGCTACGACGGGATT
# B11: UGACUCA (DNA:RNA)
# RNA: B1 RNA with C25U, C27A, A30C
# DNA 1: CAATCTGAATTCCGGTCTCCC
# DNA 2: TGGTGGCTACGACGGGATT
# B12: GCCGGGA (DNA:RNA)
# RNA: B1 RNA with C25G, G26C, C28G, U29G, A30G
# DNA 1: CAATCTGAATTCCGGTCTCCC
# DNA 2: TGGTGGCTACGACGGGATT
# B13: UUUAUGC (DNA:RNA)
# RNA: B1 RNA with C25U, G26U, C27U, C28A, A30G, A31C
# DNA 1: CAATCTGAATTCCGGTCTCCC
# DNA 2: TGGTGGCTACGACGGGATT
# B14: AAAACCU (DNA:RNA)
# RNA: GGGAGACCGGAAUUCAGAUUGUCCAAAACCUUUAAAUCCCGUCGUAGCCACCA
# DNA 1: CAATCTGAATTCCGGTCTCCC
# DNA 2: TGGTGGCTACGACGGGATT
# B15: AAUUCCU (DNA:RNA)
# RNA: B14 RNA with A27U, A28U
# DNA 1: CAATCTGAATTCCGGTCTCCC
# DNA 2: TGGTGGCTACGACGGGATT
# B16: UCUCUUG (DNA:RNA)
# RNA: B1 RNA with C25U, G26C, C27U, A30U, A31G
# DNA 1: CAATCTGAATTCCGGTCTCCC
# DNA 2: TGGTGGCTACGACGGGATT
# B17: CCGAUCC (DNA:RNA)
# RNA: B14 RNA with A25C, A26C, A27G, C29U, U31C
# DNA 1: CAATCTGAATTCCGGTCTCCC
# DNA 2: TGGTGGCTACGACGGGATT
# B18: UCCAAUG (DNA:RNA)
# RNA: B14 RNA with A25U, A26C, A27C, C29A, C30U, U31G
# DNA 1: CAATCTGAATTCCGGTCTCCC
# DNA 2: TGGTGGCTACGACGGGATT
# B19: GUGGGCA (DNA:RNA)
# RNA: B14 RNA with A25G, A26U, A27G, A28G, C29G, U31A
# DNA 1: CAATCTGAATTCCGGTCTCCC
# DNA 2: TGGTGGCTACGACGGGATT
# B20: UUAUCUG (DNA:RNA)
# RNA: B14 RNA with A25U, A26U, A28U, C30U, U31G
# DNA 1: CAATCTGAATTCCGGTCTCCC
# DNA 2: TGGTGGCTACGACGGGATT
# B21: AUAAGCC (DNA:RNA)
# RNA: B14 RNA with A26U, C29G, U31C
# DNA 1: CAATCTGAATTCCGGTCTCCC
# DNA 2: TGGTGGCTACGACGGGATT
# B22: UAGUGCG (DNA:RNA)
# RNA: B14 RNA with A25U, A27G, A28U, C29G, U31G
# DNA 1: CAATCTGAATTCCGGTCTCCC
# DNA 2: TGGTGGCTACGACGGGATT
# B23: UGGAGAC (DNA:RNA)
# RNA: B1 RNA with C25U, C27G, C28A, U29G, A31C
# DNA 1: CAATCTGAATTCCGGTCTCCC
# DNA 2: TGGTGGCTACGACGGGATT
# B24: UAGUCUU (DNA:RNA)
# RNA: B14 RNA with A25U, A27G, A28U, C30U
# DNA 1: CAATCTGAATTCCGGTCTCCC
# DNA 2: TGGTGGCTACGACGGGATT
# B25: GACAUUU (DNA:RNA)
# RNA: B14 RNA with A25G, A27C, C29U, C30U
# DNA 1: CAATCTGAATTCCGGTCTCCC
# DNA 2: TGGTGGCTACGACGGGATT
# B26: ACAAUAG (DNA:RNA)
# RNA: B14 RNA with A26C, C29U, C30A, U31G
# DNA 1: CAATCTGAATTCCGGTCTCCC
# DNA 2: TGGTGGCTACGACGGGATT
# B27: AUGAAUA (DNA:RNA)
# RNA: B14 RNA with A26U, A27G, C29A, C30U, U31A
# DNA 1: CAATCTGAATTCCGGTCTCCC
# DNA 2: TGGTGGCTACGACGGGATT
# B28: CGAGAUU (DNA:RNA)
# RNA: B14 RNA with A25C, A26G, A28G, C29A, C30U
# DNA 1: CAATCTGAATTCCGGTCTCCC
# DNA 2: TGGTGGCTACGACGGGATT
# B29: CAUUACC (DNA:RNA)
# RNA: B14 RNA with A25C, A27U, A28U, C29A, U31C
# DNA 1: CAATCTGAATTCCGGTCTCCC
# DNA 2: TGGTGGCTACGACGGGATT
# B30: CCGGCUC (DNA:RNA)
# RNA: B14 RNA with A25C, A26C, A27G, A28G, C30U, U31C
# DNA 1: CAATCTGAATTCCGGTCTCCC
# DNA 2: TGGTGGCTACGACGGGATT
# B31: GUUAAAU (DNA:RNA)
# RNA: B14 RNA with A25G, A26U, A27U, C29A, C30A
# DNA 1: CAATCTGAATTCCGGTCTCCC
# DNA 2: TGGTGGCTACGACGGGATT
# Biological target: T1, RBFOX1 RRM
# Assay: EMSA; HiTS-Eq, 1 nM pool, 10 min; buffer printed only for the single-RNA assays: 10 mM Tris pH 7.5, 150 mM NaCl, 3.4 mM EDTA, 0.001% NP-40, 30 C
# Details: tags: His6 N-terminal (pET28a); label: 5' 32P
# Method in brief: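 A pool of RNA with 7 randomized nucleotides, 5′-radiolabelled and with DNA-annealed flanks, was equilibrated at 1 nM for 10 min in 50 µL with purified RbFox RRM, wild type or mutant, across increasing protein concentrations. Free RNA was separated by 8% native PAGE, excised, reverse-transcribed, barcoded by PCR and sequenced. Relative association constants were obtained from read-count changes of each RNA species versus the control reaction and normalised to the cognate motif.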
row,Binder,binding signal
1,B1,0.00532 KA relative to UGCAUGU
2,B2,0.0106 KA relative to UGCAUGU
3,B3,0.0152 KA relative to UGCAUGU
4,B4,0.00606 KA relative to UGCAUGU
5,B5,0.00841 KA relative to UGCAUGU
6,B6,0.00988 KA relative to UGCAUGU
7,B7,0.0164 KA relative to UGCAUGU
8,B8,0.00285 KA relative to UGCAUGU
9,B9,0.0138 KA relative to UGCAUGU
10,B10,0.0167 KA relative to UGCAUGU
11,B11,0.0114 KA relative to UGCAUGU
12,B12,0.0228 KA relative to UGCAUGU
13,B13,0.0175 KA relative to UGCAUGU
14,B14,0.000218 KA relative to UGCAUGU
15,B15,0.000323 KA relative to UGCAUGU
16,B16,0.0129 KA relative to UGCAUGU

row,Binder,binding signal
1,B17,0.00586 KA relative to UGCAUGU
2,B18,0.00647 KA relative to UGCAUGU
3,B19,0.0198 KA relative to UGCAUGU
4,B20,0.0132 KA relative to UGCAUGU
5,B21,0.00411 KA relative to UGCAUGU
6,B22,0.0214 KA relative to UGCAUGU
7,B23,0.007 KA relative to UGCAUGU
8,B24,0.0135 KA relative to UGCAUGU
9,B25,0.00507 KA relative to UGCAUGU
10,B26,0.00314 KA relative to UGCAUGU
11,B27,0.0031 KA relative to UGCAUGU
12,B28,0.0112 KA relative to UGCAUGU
13,B29,0.00161 KA relative to UGCAUGU
14,B30,0.0183 KA relative to UGCAUGU
15,B31,0.00766 KA relative to UGCAUGU
